# Laboratory results from PMC12040169 (PLOS Biology, 2025).
# The other results are listed elsewhere or left out.
# Test system: T1, C. trachomatis L2/434/Bu expressing GFP (CTL2-GFP)
# T1 construct: L2/434/Bu GFP intracellular growth in HeLa cells
# Parameters: species or system HeLa; C. trachomatis total inclusion area by high-content imaging, normalised to DMSO
# Conditions: total inclusion area; 28.5 h, 10 µM; inhibitor
# In short: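 Imaging read-out: GFP inclusions and Hoechst nuclei captured by high-content imaging after fixation. Inclusion area/number = chlamydial growth; nuclei count = host cell viability. MIC calculated per earlier method.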
row,Structure (SMILES),% of control remaining
1,CCOC(=O)c1cnn(C2CCCN(Cc3cccn3C)C2)c1 (stereo not drawn) [CBK305114],103.969
2,Cc1cc(C(=O)NCCn2ccnc2C)c2cccc(Cl)c2n1 [CBK282460],106.894
3,CN1CCN(C(=O)C2CCN(CCCc3ccccc3)CC2)CC1 [CBK264326G],119.444
4,CCOC(=O)NC(=O)C(C#N)/C=N/NC(=O)CCCNc1ncc(C(F)(F)F)cc1Cl (stereo not drawn) [CBK008354],79.6823
5,CN(C)CC(=O)N1c2ccccc2CCc2ccc(NC(=O)c3ccc([N+](=O)[O-])cc3)cc21 [CBK278207C],89.7477
6,NC(=O)c1ccccc1NC(=O)CSc1nc(N)cc(N)n1 [CBK267983],73.1069
7,CC(Nc1ccc(N2CCOCC2)cc1)C(=O)Nc1cccc(C#N)c1 (stereo not drawn) [CBK305846],47.5958
8,CCCS(=O)(=O)NC[C@H]1C[C@@H]2CCN1C[C@@H]2c1cc(-c2cccs2)nn1C [CBK289101],87.1772
9,CC(C)[C@H]1N=C2C=C(C(C)(C)C)ON2[C@H]2[C@H](O)[C@H](O)C[C@H]21 [CBK303234],70.9431
10,O=C(Cc1ccccc1)N/N=C/c1nnco1 [CBK021274],101.855
11,Cc1c(NC(=O)CSc2ccc(Cl)cc2)cccc1-c1nc2ncccc2o1 [CBK268829],74.9437
12,NCc1ccc2cccc(O)c2n1 [CBK001376T],3.53
13,CCc1nnc(CN(C)Cc2c(C)nn(C)c2Cl)o1 [CBK304132],76.7356
14,CCCCOc1ccc(OC(=O)C2CCN(CCCC)CC2)cc1 [CBK122680],136.181
15,O=C(O)CCC(=O)N1CCC(Cn2cncn2)(C2CCCCC2)CC1 [CBK136809],78.0637
16,Cc1ccc2cc(CNc3ccc4[nH]ncc4c3)c(=O)[nH]c2c1 [CBK281935],107.713
17,Oc1cccc(-c2nccnc2N2CCN(c3ccncc3)CC2)c1 [CBK037079],114.017
18,CC(=O)Nc1ccc(/C=N/NC(=O)CN2CCCCCCC2)cc1 [CBK261617],105.714
19,Cc1cc(=O)[nH]c(SCc2cc(=O)c3ccccc3[nH]2)n1 [CBK294410],115.115
20,O=C(N[C@H]1C[C@H]2C(=O)NC[C@@H](CCC(=O)N3CCCCC3)N2C1)c1cccc(F)c1 [CBK289011],95.1702
21,O=C(O)c1cn(C2CC2)c2cc(N3CCN(C(=S)Nc4ccc5c(c4)OCCO5)CC3)c(F)cc2c1=O [CBK268916],73.469

row,Structure (SMILES),% of control remaining
1,O=C(O)CCC(=O)Nc1ccc(Br)cc1C(=O)c1ccccc1 [CBK262610],97.1217
2,Cc1cc(C)c2nc(-n3cncn3)c(C)cc2c1 [CBK025958],84.4275
3,O=C(NCC(=O)N1CCCC1c1cccs1)c1cccc(Br)c1 (stereo not drawn) [CBK305655],118.59
4,Cc1cccc(OCCCC(=O)Nc2ccc(S(N)(=O)=O)cc2)c1C [CBK267963],107.997
5,CCOc1ccc2nc(NC(=O)CC)sc2c1 [CBK287295],64.7584
6,CN(Cc1ccc(-c2ccc(S(C)(=O)=O)cc2)nc1)C1CCN(C(=O)c2cc(Cl)ccc2Cl)CC1 [CBK165943T],78.1307
7,CO[C@]1(c2cccc(C)c2)CC[C@@H](N2CCCCC2)CC1 [CBK015909G],53.3243
8,Cc1sc(NC(=O)c2cc(-c3ccncc3)nc3ccc(Cl)cc23)c(C#N)c1C [CBK267742],94.445
9,c1coc(-c2nnc(Nc3nc4cc5c(cc4s3)OCO5)o2)c1 [CBK287492],106.043
10,O=C(CN1C(=O)c2ccc(Br)cc2C1=O)OCc1ccc(S(=O)(=O)N2CCOCC2)cc1 [CBK267505],104.983
11,Cc1cc(NS(=O)(=O)c2ccc(NC(=O)c3ccc(C(C)(C)C)c(Br)c3)cc2)no1 [CBK265629],83.9947
12,CS(=O)(=O)NC1CCN(c2nc(C(=O)O)nc3ccccc23)CC1 [CBK304316N],78.378
13,CC1CCc2n[nH]c(C(=O)NCCCC3CCOC3)c2C1 (stereo not drawn) [CBK283212],99.885
14,CCn1c(CC2CCN(C(=O)CCn3nnnc3C)CC2)nn(C)c1=O [CBK307400],54.1933
15,Cc1noc(C)c1CN(C)C(=O)NC1CCCc2c1cnn2CCO (stereo not drawn) [CBK306283],35.216
16,Cc1noc(C)c1NC(=O)c1ccc2nccnc2c1 [CBK200221],94.2818
17,COC[C@@H]1CCCN1S(=O)(=O)c1ccc(OC(F)(F)F)cc1 [CBK044338],107.817
18,Cn1cc(CCNC(=O)Nc2ccc(CN3CCCC3=O)cc2)cn1 [CBK305410],55.5069
19,Clc1cc(NCc2ccc(Cl)c(Cl)c2)n2nccc2n1 [CBK037043],73.5118
20,CN1CCC(Oc2ncccc2OCc2ccccc2)CC1 [CBK036311],94.7201
21,COC(=O)C1C(=O)Oc2ccc3ccccc3c2C1C(C)C(=O)c1ccc(Br)cc1 (stereo not drawn) [CBK266126],107.671

row,Structure (SMILES),% of control remaining
1,OC1(c2cccnc2F)CCN(Cc2ccc(F)cc2F)CC1 [CBK284369],91.7577
2,O=[N+]([O-])c1cc(S(=O)(=O)Nc2ccc3cn[nH]c3c2)ccc1Cl [CBK067160],84.4769
3,COC(=O)c1csc2nc(NCCCO)sc12 [CBK058832],74.3287
4,Fc1cccc(NCc2ccccc2)n1 [CBK000149],73.037
5,CC(C)(C)OC(=O)N1CCC(COc2ncc(-c3ccc(C(=O)N4CCC[C@@H]4CO)nc3)cn2)CC1 [CBK170022],61.6238
6,O=C(COc1ccc(F)cc1)Nc1ccc2[nH]ccc2c1 [CBK159689],97.0406
7,CC(C)CC(=O)N1CCC(Cc2ccccc2-c2cccs2)(C(=O)NC(C)C)CC1 [CBK285898],114.123
8,CC(NC(=O)N1CCc2ccccc2C1)c1ccccc1 (stereo not drawn) [CBK155310],105.243
9,CCOC(=O)c1c(NC(=O)CN2CCN(c3ccc(F)cc3)CC2)sc2c1CCCC2 [CBK265536],97.3755
10,O=C(NCc1ccc2c(c1)OCO2)c1ccc(S(=O)(=O)N2CCCC2)cc1 [CBK263590],94.8778
11,CC(=O)N(Cc1ccccc1)C1CCCc2c1[nH]c1ccc(C)cc21 (stereo not drawn) [CBK261810],100.891
12,OC1CCCCC1C1(NC(=S)Nc2ccccc2)CCCCC1 (stereo not drawn) [CBK026324],35.8329
13,COc1ccc(Nc2cc(-c3cccc(NC(C)=O)c3)ncn2)cn1 [CBK037125],99.0669
14,O=C(NCc1ccco1)c1cc(-c2ccc3[nH]ccc3c2)cnc1NCCOc1ccccc1 [CBK106388],89.1453
15,O=C(Cn1cnc2ccc(F)cc2c1=O)N1CCOC2CCCC21 (stereo not drawn) [CBK304932],48.346
16,CCCc1n[nH]c(=S)n1CC(=O)Nc1cccc(-n2ncc(C(=O)OCC)c2C)c1 [CBK297746],79.1559
17,O=C(CN1CCN(C2CCCC2)C(=O)C1)N1CCCc2ccccc21 [CBK282132],106.956
18,O=C(COc1ccc(-c2cnc3ccccc3n2)cc1)c1cccc([N+](=O)[O-])c1 [CBK266367],120.315
19,CCc1cc2c(=O)c(-c3nc(C)cs3)c(CCCC(=O)O)oc2cc1O [CBK264834],108.459
20,COC(=O)c1c(NC(=O)C2CC=CCC2C(=O)O)sc2c1CCC(c1ccccc1)C2 (stereo not drawn) [CBK263683],102.065
21,CCN(CC)C(=O)CN1CCN(c2nccnc2OC)CC1 [CBK084221],63.2626

row,Structure (SMILES),% of control remaining
1,Cc1ccsc1CNC(=O)OCC1CCN(C)CC1 [CBK200149],84.4802
2,O=C(O)Cc1nnnn1-c1ccccc1 [CBK262984],83.9136
3,CCc1nc2ccc(C(=O)Nc3ccc(Cl)c(Cl)c3)cn2c1N(C)Cc1ccc(OC)cc1 [CBK145585],78.3336
4,Cc1cc(=O)oc2cc(OCC(=O)Nc3cccc(C(=O)O)c3)ccc12 [CBK287058],119.337
5,COc1ccc(SCC(=O)Nc2nccs2)cc1 [CBK287751],80.0216
6,Cc1ccc2nc(CNC(=O)CN(C)C3CCNCC3)cn2c1 [CBK307228],62.3668
7,Cc1cn(C(C)(C)C(=O)N2CCOCC2)nc1-c1ccccc1Cl [CBK005206],53.4902
8,O=C(O)C1CC=CCC1C(=O)NCc1ccc2c(c1)OCO2 (stereo not drawn) [CBK264209],127.562
9,O=C(O)c1cc(Nc2nc(N3CCOCC3)nc(N3CCOCC3)n2)ccc1Cl [CBK268081],92.6344
10,Cc1nc(NCc2ccc(C(F)(F)F)cc2)nc(N2CCN(C)CC2)n1 [CBK023866],98.1589
11,CN(CC#CCN1CCCC1)C(=O)CNC(=O)OC(C)(C)C [CBK007489],56.8771
12,c1ccc(COc2ccccc2CNCCN2CCOCC2)cc1 [CBK278212C],97.829
13,FC(F)(F)c1ccccc1/C=N/n1c(S)nnc1COc1ccccc1 [CBK265260],103.744
14,OCCN(CCO)c1cncc(-c2ccc(Cl)cc2)n1 [CBK065748],111.415
15,N=C1OC2CSCC2N1C(=O)C1(c2ccccc2)CC1 (stereo not drawn) [CBK284524],126.364
16,O=C1COc2ccccc2CCCCC2(CCCN(CC(=O)N3CCCC3)C2)CN1 (stereo not drawn) [CBK292009],84.6757
17,Cc1ccn(CCNC(=O)C(C)Cc2cccs2)n1 (stereo not drawn) [CBK281625],84.0222
18,Cn1ccnc1C1(O)CC2CCC(C1)N2C(=O)NCc1ccccc1 (stereo not drawn) [CBK284050],96.65
